From paper PMC4336329 (PLoS ONE, 2015)
The campaign covered roughly 310,000 compounds. About 14,000 (4.5%) showed an effect of 50% or more. Effects have a minus sign here. Some of the results follow.

molecular target: human ether-à-go-go-related gene (hERG) potassium channel (human, UniProt Q12809); experiment: primary screen, population patch clamp on CHO cells stably expressing hERG
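Further: peak tail current of the secondary pulse compared with the same well before compound.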

human ether-à-go-go-related gene (hERG) potassium channel, sequence (Q12809 whole entry, looked up): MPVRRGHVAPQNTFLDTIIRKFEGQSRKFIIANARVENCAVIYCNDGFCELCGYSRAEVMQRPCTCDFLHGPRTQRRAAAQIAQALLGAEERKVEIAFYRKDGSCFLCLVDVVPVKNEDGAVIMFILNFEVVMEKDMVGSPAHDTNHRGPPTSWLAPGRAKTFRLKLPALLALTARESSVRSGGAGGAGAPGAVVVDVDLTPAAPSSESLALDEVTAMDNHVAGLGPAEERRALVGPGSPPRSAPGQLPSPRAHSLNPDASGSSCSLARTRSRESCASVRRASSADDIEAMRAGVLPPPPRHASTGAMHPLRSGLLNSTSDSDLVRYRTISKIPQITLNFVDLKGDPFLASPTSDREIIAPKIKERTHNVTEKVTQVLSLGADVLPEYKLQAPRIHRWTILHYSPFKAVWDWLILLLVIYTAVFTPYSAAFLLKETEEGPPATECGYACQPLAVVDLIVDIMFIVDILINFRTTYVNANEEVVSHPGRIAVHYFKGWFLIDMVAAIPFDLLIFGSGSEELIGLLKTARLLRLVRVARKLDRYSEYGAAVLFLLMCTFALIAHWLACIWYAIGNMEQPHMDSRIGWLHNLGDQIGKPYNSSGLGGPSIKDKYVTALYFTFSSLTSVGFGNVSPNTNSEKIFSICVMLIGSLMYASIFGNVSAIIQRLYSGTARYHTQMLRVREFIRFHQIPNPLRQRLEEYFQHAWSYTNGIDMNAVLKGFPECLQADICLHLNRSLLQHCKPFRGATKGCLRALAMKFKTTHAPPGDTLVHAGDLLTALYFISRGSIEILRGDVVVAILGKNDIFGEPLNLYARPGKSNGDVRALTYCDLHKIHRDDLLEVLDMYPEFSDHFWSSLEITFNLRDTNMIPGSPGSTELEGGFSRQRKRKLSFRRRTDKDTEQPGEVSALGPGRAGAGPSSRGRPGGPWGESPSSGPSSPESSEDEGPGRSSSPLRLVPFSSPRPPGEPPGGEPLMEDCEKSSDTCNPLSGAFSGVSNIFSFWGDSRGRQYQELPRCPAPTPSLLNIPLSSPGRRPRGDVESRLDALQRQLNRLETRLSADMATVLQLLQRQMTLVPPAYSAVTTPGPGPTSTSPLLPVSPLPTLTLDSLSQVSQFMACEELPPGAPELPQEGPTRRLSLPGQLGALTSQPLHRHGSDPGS

| Structure (SMILES) | hERG current change (%, negative = inhibition) at 10uM |
| --- | --- |
| O=C(N/N=C/c1ccco1)c1cc(-c2ccccc2)nc2ccccc12 | 2.45% |
| CC1=CC(C)=[NH+]c2ccc(C)cc2N1.[Cl-] | -6.12% |
| O=C(c1noc2c1CCCC2)N1CCN(Cc2ccccc2)CC1 | -0.531% |
| CCC(C)Sc1nc2c(cnn2-c2ccc(C)c(C)c2)c(=O)[nH]1 (stereo not shown) | -13.6% |
| OCc1cn(-c2ccccc2)nc1-c1ccc(Br)cc1 | 13.1% |
| CCCC(=O)Nc1ccc(N2CCN(C(=O)c3cccs3)CC2)cc1 | -49.2% |
| CCOc1cccc(C(=O)Nc2cccnc2)c1 | 4.13% |
| O=C(O)c1ccc(N=Cc2c(O)ccc3ccccc23)cc1 | 1.85% |
| CN(C)S(=O)(=O)c1cc(C(=O)NCC2CCCO2)c(Cl)cc1Cl (stereo not shown) | 11.1% |
| CCCCS(=O)(=O)N1C2=NC(C(=O)OC)=C(C(=O)OC)[C@@H]3N(C)c4ccc(OC)cc4[C@]23C[C@H]1C(=O)OC | -28.9% |
| Cc1ccccc1OCC(=O)NCCNC(=O)c1cccnc1 | 19% |
| O=C(CNCC1CCCO1)Nc1ccc(N2CCCCCC2)cc1.O=C(O)C(=O)O (stereo not shown) | -31.9% |
| Cc1cc(C=O)c(C)n1-c1sc2c(c1C(=O)O)CCCC2 | 6.33% |
| COc1cc(OC)cc(C(=O)N2CCN(Cc3ccc4c(c3)OCO4)CC2)c1.O=C(O)C(=O)O | -9.72% |
| O=C(CN1CCN(c2ccccc2)CC1)c1ccc2cc[nH]c2c1 | 11.4% |
| Cc1ccc(S(=O)(=O)N2CCCC(C(=O)NC3CCCC3)C2)cc1Cl (stereo not shown) | 17.8% |
| COc1ccc(NC(=O)OCCN2CCN(Cc3ccccc3)CCC2=O)cc1 | -9.25% |
| Cc1cc2c(c(=O)n1Cc1cccnc1)C(c1ccc(F)cc1)C(C#N)=C(N)O2 (stereo not shown) | 0.0836% |
| O=[N+]([O-])c1ccc(N2CCN(C(=S)c3cccc([N+](=O)[O-])c3)CC2)cc1 | -48.5% |
| O=c1[nH]nc2c3ccccc3cnn12 | 1.32% |
| CCCCn1c(O)c(C(C)=NCCN2CCCCC2)c(=O)[nH]c1=O | -21.7% |
| COc1ccc(C(=O)N2CCN(C(=O)c3ccncc3)CC2)cc1 | 12.4% |

| Structure (SMILES) | hERG current change (%, negative = inhibition) at 10uM |
| --- | --- |
| COc1ccc(/C=N/NC(=O)C(=O)NCc2cccnc2)cc1OC | -7.01% |
| O=S(=O)(c1cc(Cl)ccc1Cl)N1CCN(c2ccccn2)CC1 | -20.6% |
| Cc1ccc(CC(=O)Nc2ccc(S(=O)(=O)N3CCOCC3)cc2)cc1 | 5.32% |
| C/C(CC(=O)Nc1ccccn1)=N\NC(=O)c1ccc(C)cc1 | -2.2% |
| C=CCN(C(=O)CNC(=O)c1ccco1)C(C(=O)NC1CCCCC1)c1ccc(OC)cc1 (stereo not shown) | -4% |
| COc1cc(OC)c(C2C(C#N)=C(N)OC3=C2C(=O)CC(C)(C)C3)cc1OC (stereo not shown) | -1.73% |
| Cc1cccc(C(=O)Nc2ccc(N3CCN(C(=O)c4ccco4)CC3)cc2)c1 | 5.03% |
| COc1ccc(NC(=S)c2ccc3ccccc3n2)cc1 | 29% |
| Cc1nc2c(-c3ccc(F)cc3)cnn2c(N)c1-c1ccccc1 | 15% |
| O=C(N/N=C1\CC(c2ccccc2)Oc2ccccc21)c1ccccn1 (stereo not shown) | 11.7% |
| CCn1c(SCC(=O)N/N=C/c2c[nH]c3ccccc23)nnc1-c1ccc(Cl)cc1 | -18.4% |
| CN(C)C(=O)Oc1ccc(Br)c2ccccc12 | -6% |
| CNC(=O)c1cccn(Cc2cccc(C(F)(F)F)c2)c1=O | 9.39% |
| O=C(/C=C/c1ccc(F)cc1)Nc1ccc(S(=O)(=O)Nc2ncccn2)cc1 | 8.21% |
| N#C/C(=C/c1cn(-c2ccccc2)nc1-c1cccc(S(=O)(=O)N2CCCC2)c1)C(=O)NCc1ccco1 | 3.17% |
| CNc1ccccc(-c2ccc3ccccc3n2)c1=O | -15.5% |
| CC1(C)C(=O)Nc2ccccc2N1C(=O)CN1C(=O)C(=O)N(C2CCCC2)C1=O | 5.47% |
| O=C(N/N=C/c1cccnc1)c1ccccc1 | 17.3% |
| COc1ccc(C(=O)COC(=O)c2ccc(OC)c(OC)c2)cc1OC | 4.31% |
| COc1ccc(CNC(=O)c2cc(-c3ccncc3)nc3c(C)cc(C)cc23)cc1OC | 14.6% |
| O=C(N/N=C/c1cccn1-c1ccc([N+](=O)[O-])cc1)c1cccnc1 | -22.5% |
| COc1ccc(/C=C/C(=O)OCC(=O)Nc2ccc(N3CCOCC3)cc2)cc1OC | 3.9% |

| Structure (SMILES) | hERG current change (%, negative = inhibition) at 10uM |
| --- | --- |
| CCOC(=O)Cn1nc(Cc2ccccc2)c2ccccc2c1=O | 4.1% |
| O=C(Oc1ccc(N(C(=O)c2ccncc2)S(=O)(=O)c2ccc(F)cc2)cc1)c1ccncc1 | -0.259% |
| S=C(NCc1ccc2[nH]c3c(c2c1)CCCC3)Nc1ccccc1 | 2.38% |
| Cc1ccc(-n2c(C)cc(C(=O)COc3c(CO)cc(F)cc3CO)c2C)cc1C | -16.7% |
| Cl.OC(COc1ccc(Cl)cc1)CN1CCCCC1 (stereo not shown) | -61.9% |
| Cc1ccccc1-n1c(C)cc(/C=C2/C(=N)N3C(c4ccccc4)=CSC3=NC2=O)c1C | 8.13% |
| COc1cc2cc(C(=O)N3CCN(Cc4ccc5c(c4)OCO5)CC3)[nH]c2cc1OC | 12.4% |
| CC(NC(=O)Nc1ccc(O)cc1)(C(F)(F)F)C(F)(F)F | 16.1% |
| O=C(CNC(=O)c1ccccc1)OCC(=O)c1ccc(Cl)s1 | 0.566% |
| COc1cc(CN2CCC(C(=O)NC3CCCC3)CC2)cc(Br)c1O.O=C(O)C(=O)O | -27.5% |
| COc1ccc(N2CCN(C(=O)c3cc(N4C(=O)C5C6CCC(C6)C5C4=O)ccc3Cl)CC2)cc1 (stereo not shown) | -8.93% |
| O=C(CSc1nc2ccccc2c(=O)n1-c1ccc(F)cc1)Nc1ccc2c(c1)CCC2 | -12% |
| COc1ccc(-c2nnc(SC)n2C)cc1 | 2.88% |
| Cc1ccc(S(=O)(=O)N2CCN(c3nccnc3C#N)CC2)cc1 | -54.8% |
| CCn1ncc(C(=O)Nc2ccccc2C)c1C | 9.29% |
| CCOc1ccc(C(CC(=O)O)NC(=O)C(CC)c2ccccc2)cc1 (stereo not shown) | 8.29% |
| COc1cc(-c2nnc(SCC(=O)c3ccccc3)o2)cc(OC)c1OC | -7.2% |
| Cc1ccccc1NC(=O)c1ccccn1 | 5.81% |
| COc1cccc2c1cc1c(=O)n(CC(=O)NCCCc3ccccc3)nc(C)n12 | 4.33% |
| Cc1ccccc1C[n+]1cccc2ccccc21.[Br-] | -4.13% |
| Cc1ccc(S(=O)(=O)NCCCCCC(=O)Nc2ccccc2C)cc1 | -11.4% |
| O=C(N/N=C/c1sc(=O)n(Cc2ccc(Br)cc2)c1Cl)c1ccco1 | 13.4% |

| Structure (SMILES) | hERG current change (%, negative = inhibition) at 10uM |
| --- | --- |
| COc1ccccc1CNC(=O)CCN1C(=O)COc2ccccc21 | 1.89% |
| O=C(C1CCC(=O)N(C2CCCC2)C1)N1CCN(Cc2cccc(Cl)c2)CC1 (stereo not shown) | -2.16% |
| Cc1ccc(Cn2nc(C)c(NC(=O)CCCn3nc(C)c([N+](=O)[O-])c3C)c2C)cc1 | -10.9% |
| N/C(=N\c1nc2c(c(=O)[nH]1)CCC2)Nc1cccc2ccccc12 | -6.95% |
| Cc1ccc(N(CC(=O)NCCc2ccccc2)S(=O)(=O)c2c(C)noc2C)cc1 | -32% |
| Cc1ccc(S(=O)(=O)N(C)C)cc1NC(=O)COc1cccc(-n2cnnn2)c1 | -28.3% |
| O=C(CN1C(=O)COc2ccc(S(=O)(=O)N3CCCCCC3)cc21)NCc1ccc(F)cc1 | -8.68% |
| COc1ccc(NC(=O)C(C)Sc2nnc(C3CC3)n2C2CC2)cc1 (stereo not shown) | -13.3% |
| COc1ccc(-c2nnc(SCC(=O)NC(=O)Cc3ccccc3)n2C)cc1 | -5.69% |
| CC(=O)c1c(C)c(C)c2n1CCn1c(C)ccc1-2 | 13.1% |
| CCN(CC)S(=O)(=O)c1ccc(C(=O)NC(=S)N(CCO)Cc2ccccc2)cc1 | 13.3% |
| CCCc1[nH]nc2c1C(c1ccc(OCCN3CCOCC3)c(OC)c1)C(C#N)=C(N)O2 (stereo not shown) | -2.95% |
| COC(=O)c1cc(C(=O)OCC(=O)Nc2ccccc2OC(F)F)cc([N+](=O)[O-])c1 | -30.3% |
| COc1cc([N+](=O)[O-])ccc1NC(=O)Nc1cnccn1 | 5.34% |
| O=C1COc2ccc(-c3csc(=Nc4ccc(OC(F)F)cc4)n3CC3CCCO3)cc2N1 (stereo not shown) | -18.7% |
| COc1cc(CN2CCNC(=O)C2CC(=O)NCCC2=CCCCC2)cc(OC)c1 (stereo not shown) | 0.0765% |
| O=C(N/N=C/c1ccc([N+](=O)[O-])cc1)c1ccc(NS(=O)(=O)c2cccs2)cc1 | 6.35% |
| Cc1cccc(C(=O)NCCN2CCN(c3ccccc3)CC2)c1.Cl | -37.1% |
| O=[N+]([O-])c1cc(C(F)(F)F)cc([N+](=O)[O-])c1NCCNC(=S)Nc1cccc(F)c1 | -1.74% |
